Laboratory results from PubChem BioAssay.
This list was built around the results that the source calls inconclusive (neither active nor inactive); the mix of calls is not that of the screen. Potencies beside an inconclusive call are fits to weak or partial responses and may not hold up. The source made the active and inactive calls. The limit is not given here; nearly all actives have IC50 up to about 30 µM.

assay: SU-DIPG-XXV glioma cell viability, MIPE5.0 library, qHTS (AID 1347068);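 as to IC50: cells exposed to compound for 48 hours before viability readout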

| Compound | IC50 | outcome |
| --- | --- | --- |
| CCCS(=O)(=O)c1nc(NC2CC2)cc(-c2ccc3c(ccn3C3CC(C)(C)NC(C)(C)C3)c2)n1 | active: 3.12 µM |  |
| CONC(=O)Nc1ccc(-c2sc3c(c2CN(C)C)c(=O)n(-c2ccc(OC)nn2)c(=O)n3Cc2c(F)cccc2F)cc1 | inconclusive: 0.0166 µM [cytotoxic] |  |
| CC(C)N(CCC(=O)c1ccc2ccccc2c1)Cc1ccccc1 | inconclusive: 14.8 µM [cytotoxic] |  |
| CCN(CC)CCNC(=O)c1c(C)[nH]c(/C=C2/C(=O)Nc3ccc(-c4csc(-c5ccccc5)n4)cc32)c1C | inconclusive: 37.2 µM [cytotoxic] |  |
| CN1CC[C@@H](c2c(O)cc(O)c3c(=O)cc(-c4ccc(C(F)(F)F)cc4Cl)oc23)[C@@H]1CO | inconclusive: 33.2 µM [cytotoxic] |  |
| Oc1ccc(Nc2nc(-c3ccc(Cl)cc3)cs2)cc1 | inconclusive: 18.6 µM [cytotoxic] |  |
| C[C@@H](C(=O)Nc1ccc(Cl)cc1)C1CCC(c2ccnc3ccc(F)cc23)CC1 (stereo not given in full) | inconclusive: 18.6 µM [cytotoxic] |  |
| Nc1ccc(F)cc1NC(=O)c1ccc(CNC(=O)/C=C/c2cccnc2)cc1 | active: 16.6 µM |  |
| COC1(c2sc3c(N4CCOCC4)nc(-c4cnc(N)nc4)nc3c2C)COC1 | active: 1.18 µM |  |
| Cc1c(NC(=O)OCC2COCCN2)cn2ncnc(Nc3ccc4c(cnn4Cc4cccc(F)c4)c3)c12 (stereo not given) | inconclusive: 37.2 µM [cytotoxic] |  |
| COc1cc2ncnc(Oc3cccc(NC(=O)Nc4cc(C(C)(C)C(F)(F)F)on4)c3)c2cc1OC | inconclusive: 6.61 µM [cytotoxic] |  |
| C[C@@H]1CC[C@@]2(OC1)OC1CC3C4CC=C5CC(O)CCC5(C)C4CCC3(C)C1[C@@H]2C (stereo not given in full) |  | inactive |
| COc1cccc2c1c(O)c(C(=O)N(C)c1ccc(C(F)(F)F)cc1)c(=O)n2C | inconclusive: 0.00296 µM [cytotoxic] |  |
| CC(=O)NCCCS(=O)(=O)O |  | inactive |
| CN(C)C(=O)C(CCN1CCC(O)(c2ccc(Cl)cc2)CC1)(c1ccccc1)c1ccccc1 |  | inactive |
| O=C(Nc1ccc2[nH]nc(-c3ccncc3)c2c1)[C@@H]1CCN(CC(=O)N2CCN(c3ccc(-c4ncccn4)cc3)CC2)C1 | inconclusive: 7.42 µM [cytotoxic] |  |
| O=C(/C=C\n1cnc(-c2cc(C(F)(F)F)cc(C(F)(F)F)c2)n1)NNc1ccccn1 | inconclusive: 14.8 µM [cytotoxic] |  |
| Cc1ccc(-n2c(C)cc(-c3nnc4n3CCCCC4)c2C)cc1 | inconclusive: 20.9 µM [cytotoxic] |  |

| Compound | IC50 | outcome |
| --- | --- | --- |
| CCCCOC(=O)NS(=O)(=O)c1sc(CC(C)C)cc1-c1ccc(Cn2ccnc2)cc1 |  | inactive |
| c1ccc(-c2ccc(CNc3nc(-c4ccccn4)nnc3-c3ccccc3)cc2)cc1 | active: 2.95 µM |  |
| O=C1Nc2nc(-c3c(O)cccc3OCC3CC3)cc([C@@H]3CCCNC3)c2CO1 | active: 13.2 µM |  |
| CCCc1cc(C)[nH]c(=O)c1CNC(=O)c1cc(-c2ccc(N3CCN(C(C)C)CC3)nc2)cc2c1cnn2C(C)C | inconclusive: 29.5 µM [cytotoxic] |  |
| COc1cccc(-c2c(C)n(Cc3c(F)cccc3C(F)(F)F)c(=O)n(C[C@H](NCCCC(=O)O)c3ccccc3)c2=O)c1F |  | inactive |
| Cc1cccc(CC(=O)N2CCc3c2ccc(-c2cn(C)c4ncnc(N)c24)c3F)n1 | inconclusive: 8.33 µM [cytotoxic] |  |
| O=C(NO)c1cnc(NC2(c3ccccc3)CC2)nc1 | inconclusive: 3.32 µM [cytotoxic] |  |
| Cc1nnn(C)c1-c1cnc2c3ccc(C(C)(C)O)cc3n([C@H](c3ccccc3)C3CCOCC3)c2c1 | inconclusive: 0.295 µM [cytotoxic] |  |
| O=C(NCCCNC(=O)c1ccc[nH]c1=O)c1cc(-c2ccccc2)on1 |  | inactive |
| CCCCOc1nc(N)c2c(n1)N(Cc1cccc(CN3CCCC3)c1)CC(=O)N2 | inconclusive: 23.5 µM |  |
| Cn1cc(-c2cc(Oc3cc(F)c(NC(=O)C4(C(=O)Nc5ccccc5)CC4)cc3F)ccn2)cn1 | inconclusive: 16.6 µM [cytotoxic] |  |
| Cc1cnc(-c2ccccc2C(C)C)nc1NCc1ccc(-n2ccnn2)cc1 |  | inactive |
| CCCC[C@@H](C=O)NC(=O)[C@H](CC(C)C)NC(=O)OCc1ccccc1 | active: 16.6 µM |  |
| CC1=C2C[C@H]3[C@@H](CC[C@@H]4C[C@H](NS(C)(=O)=O)CC[C@@]43C)[C@@H]2CC[C@@]2(C1)O[C@@H]1C[C@H](C)CN[C@H]1[C@H]2C | inconclusive: 26.3 µM [cytotoxic] |  |
| COc1cc(-c2cn(C)c(=O)c3cnccc23)c(OC)cc1CN(C)C |  | inactive |
| Cn1cc(C2=C(c3cn(C)c4cc([N+](=O)[O-])ccc34)C(=O)NC2=O)c2ccccc21 | active: 4.68 µM |  |
| O=C(NCc1ccc(S(=O)(=O)c2cccc(C(F)(F)F)c2)cc1)c1cnc2[nH]ncc2c1 | inconclusive: 0.0235 µM [cytotoxic] |  |
